Screen size: about 310,000 compounds; about 14,000 (4.5%) showed an effect of 50% or more. Effects have a minus sign here. Some of the results follow.
target: human ether-à-go-go-related gene (hERG) potassium channel (human, UniProt Q12809); assay: primary screen, population patch clamp on CHO cells stably expressing hERG
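Also: peak tail current of the secondary pulse compared with the same well before compound.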

Sequence of human ether-à-go-go-related gene (hERG) potassium channel (Q12809 whole entry, looked up): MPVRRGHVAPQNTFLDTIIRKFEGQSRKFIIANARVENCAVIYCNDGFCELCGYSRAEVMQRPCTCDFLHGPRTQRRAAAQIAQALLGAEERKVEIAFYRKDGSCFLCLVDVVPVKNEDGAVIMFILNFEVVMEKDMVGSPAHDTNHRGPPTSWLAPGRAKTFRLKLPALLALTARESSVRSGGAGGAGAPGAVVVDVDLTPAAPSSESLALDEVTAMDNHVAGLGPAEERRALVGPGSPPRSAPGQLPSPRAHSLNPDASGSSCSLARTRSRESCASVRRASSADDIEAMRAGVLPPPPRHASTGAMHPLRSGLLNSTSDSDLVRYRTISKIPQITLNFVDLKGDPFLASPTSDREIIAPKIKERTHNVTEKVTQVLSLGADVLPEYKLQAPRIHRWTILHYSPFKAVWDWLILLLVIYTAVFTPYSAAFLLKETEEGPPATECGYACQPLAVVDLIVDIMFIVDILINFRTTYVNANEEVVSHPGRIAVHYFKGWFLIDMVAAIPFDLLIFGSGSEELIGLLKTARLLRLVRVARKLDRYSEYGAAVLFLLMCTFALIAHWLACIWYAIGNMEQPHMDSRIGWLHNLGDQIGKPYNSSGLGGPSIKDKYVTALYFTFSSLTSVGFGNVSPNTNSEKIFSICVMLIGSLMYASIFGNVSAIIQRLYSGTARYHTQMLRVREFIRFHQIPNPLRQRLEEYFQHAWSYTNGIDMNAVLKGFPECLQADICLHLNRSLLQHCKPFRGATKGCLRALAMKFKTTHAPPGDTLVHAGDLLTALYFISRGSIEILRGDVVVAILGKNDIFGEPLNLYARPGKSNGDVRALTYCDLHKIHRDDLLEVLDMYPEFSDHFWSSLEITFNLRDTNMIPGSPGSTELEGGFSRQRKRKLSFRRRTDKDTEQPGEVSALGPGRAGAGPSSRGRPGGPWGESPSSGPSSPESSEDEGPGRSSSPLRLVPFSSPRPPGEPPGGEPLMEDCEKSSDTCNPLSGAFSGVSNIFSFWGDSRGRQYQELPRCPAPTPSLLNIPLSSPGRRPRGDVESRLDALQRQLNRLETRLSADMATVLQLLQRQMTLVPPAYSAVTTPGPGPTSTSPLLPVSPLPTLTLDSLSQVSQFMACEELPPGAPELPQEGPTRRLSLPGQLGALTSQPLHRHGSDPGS

| SMILES | hERG current change (%, negative = inhibition) at 10uM [%] |
| --- | --- |
| COc1ccc(N2CCN(CC(=O)Nc3ccc(SC(F)F)cc3)CC2)cc1 | -76.6 |
| NC(=O)COC(=O)c1ccccc1Nc1ccc(SC(F)F)cc1 | -40.6 |
| CCCCn1c(=O)c(C(=O)NCc2ccco2)c(O)c2ccccc21 | -0.439 |
| Cn1c(-c2cnn(-c3ccccc3)c2N)n[nH]c1=S | 11.8 |
| CCOC(=O)c1cc(CC)sc1NC(=O)CN1C(=O)C(=O)N(CC(C)C)C1=O | -4.75 |
| CC1Cc2cc(S(=O)(=O)N3CCCCC3)ccc2N1C(=O)C1CCC1 (stereo not drawn) | -15 |
| COCCN1C=C2C(=O)C(C)(OC(=O)CCc3ccccc3)C(=O)C=C2C=C1c1ccc(C#N)cc1 (stereo not drawn) | -72.4 |
| COC(=O)c1cn(NC(=O)/C=C/c2cc(OC)ccc2OC)c(=O)c2ccccc12 | -4.33 |
| O=C(c1cnc(N2CCN(c3ncccn3)CC2)c2ccccc12)N1CCN(c2ccccn2)CC1 | -21.7 |
| CCCCN(CC)C(=O)C1CCC(CNS(=O)(=O)c2cccc3nsnc23)CC1 (stereo not drawn) | -23.7 |
| Cc1nnc(SCC(=O)N2CCCCCC2)n(N)c1=O | 12.1 |
| N#C/C(=C\c1ccc[nH]1)C(=O)NCC1CCCO1 (stereo not drawn) | 11.6 |
| CN(Cc1ccco1)C(=O)CCc1nc2sc3c(c2c(=O)[nH]1)CCCC3 | -9.11 |
| CCOC(=O)c1cnc(SC2CC(=O)N(c3ccccc3)C2=O)nc1N (stereo not drawn) | 9.58 |
| Cc1ccc(/C=C/C(=O)O)cc1S(=O)(=O)Nc1ccc(C(=O)O)cc1 | 5.14 |
| N#CC(=C=[N-])c1nc2ccccc2nc1-[n+]1cccc(NC(=O)c2cccs2)c1 | -1.3 |
| CN1/C(=C\C(=S)Nc2ccccc2)C(C)(C)c2ccccc21 | -16.9 |
| O=C(O)c1ccc(S(=O)(=O)NC2CCCc3ccccc32)cc1 (stereo not drawn) | 4.88 |
| CCOC(=O)c1ccc(NC(=S)N(CCN2CCCCCC2)Cc2cccs2)cc1 | -11.6 |
| COc1ccc(S(=O)(=O)c2ccc(OCC3CO3)cc2)cc1 (stereo not drawn) | 13.7 |
| CCOc1ccc(C(=O)C[n+]2ccc(C(=O)NCCO)cc2)cc1.[Br-] | 18.3 |
| O=C(CSc1ccccc1Cl)N1CCC(c2nc3ccccc3s2)CC1 | -7.4 |
| CCN(CC)C(=O)C1=C(C)NC(=O)NC1c1ccccc1F (stereo not drawn) | -3.49 |
| Cc1ccc(NC(=O)C2CCN(C(=O)NC3CCCCC3)CC2)cc1 | 1.58 |
